{
  "source": "paper PMC4336329",
  "about": "(PLoS ONE, 2015)",
  "note": "About 2,200 (0.71%) of roughly 310,000 compounds showed an effect of 50% or more. Effects have a minus sign here. The list shows a part of the results.",
  "data": [
    {"target": "human ether-à-go-go-related gene (hERG) potassium channel (human, UniProt Q12809)", "sequence (Q12809 whole entry, looked up)": "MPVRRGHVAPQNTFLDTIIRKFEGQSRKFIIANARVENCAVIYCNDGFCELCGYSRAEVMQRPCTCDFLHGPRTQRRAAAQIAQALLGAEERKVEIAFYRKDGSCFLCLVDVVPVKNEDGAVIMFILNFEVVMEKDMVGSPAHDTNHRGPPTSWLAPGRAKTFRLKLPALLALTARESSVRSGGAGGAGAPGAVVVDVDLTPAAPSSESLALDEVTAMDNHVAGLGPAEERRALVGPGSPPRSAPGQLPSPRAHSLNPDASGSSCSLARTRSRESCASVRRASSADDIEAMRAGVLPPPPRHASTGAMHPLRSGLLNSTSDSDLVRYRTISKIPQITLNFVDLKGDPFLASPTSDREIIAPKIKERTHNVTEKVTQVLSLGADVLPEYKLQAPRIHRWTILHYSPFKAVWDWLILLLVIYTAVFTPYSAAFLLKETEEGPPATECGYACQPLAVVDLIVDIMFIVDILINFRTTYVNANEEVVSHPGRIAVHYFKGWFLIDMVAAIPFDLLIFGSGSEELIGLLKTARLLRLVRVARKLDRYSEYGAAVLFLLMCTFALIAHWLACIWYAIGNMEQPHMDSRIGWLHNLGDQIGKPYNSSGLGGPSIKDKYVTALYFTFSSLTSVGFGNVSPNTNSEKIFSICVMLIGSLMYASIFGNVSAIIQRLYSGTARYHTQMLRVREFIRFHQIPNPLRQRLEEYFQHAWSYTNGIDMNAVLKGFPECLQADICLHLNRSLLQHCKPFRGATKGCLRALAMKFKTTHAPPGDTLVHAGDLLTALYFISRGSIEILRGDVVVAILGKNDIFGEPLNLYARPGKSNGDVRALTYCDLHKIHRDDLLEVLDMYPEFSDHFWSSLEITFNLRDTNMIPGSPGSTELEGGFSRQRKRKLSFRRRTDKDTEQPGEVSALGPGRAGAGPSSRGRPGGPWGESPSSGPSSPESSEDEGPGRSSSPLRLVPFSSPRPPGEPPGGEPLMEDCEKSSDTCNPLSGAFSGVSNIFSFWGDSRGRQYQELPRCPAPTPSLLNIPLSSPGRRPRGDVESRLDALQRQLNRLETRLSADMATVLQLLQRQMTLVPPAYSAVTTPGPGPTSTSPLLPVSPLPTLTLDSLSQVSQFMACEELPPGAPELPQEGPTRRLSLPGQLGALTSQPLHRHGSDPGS", "assay": "primary screen, population patch clamp on CHO cells stably expressing hERG", "units": {"hERG current change (%, negative = inhibition) at 1uM": "%"}, "values": [
      {"smiles": "CCCS(=O)(=O)c1c(S(=O)(=O)CCC)c2cnccn2c1C(=O)c1ccc(F)cc1", "hERG current change (%, negative = inhibition) at 1uM": 3.95},
      {"smiles": "CN1CCN(S(=O)(=O)c2ccc(Br)c3ccccc23)CC1", "hERG current change (%, negative = inhibition) at 1uM": 8.08},
      {"smiles": "CCOC(=O)CNC(=O)C1Cc2ccccc2CN1S(=O)(=O)c1cccs1", "note": "(stereo not drawn)", "hERG current change (%, negative = inhibition) at 1uM": 3.82},
      {"smiles": "Cc1[nH]c2ccccc2c1/C=N\\NC(=O)CNc1ccc2c(c1)OCO2", "hERG current change (%, negative = inhibition) at 1uM": 13.2},
      {"smiles": "CC(C)N(Cc1cnn(C)c1)Cc1nc(COc2ccccc2)no1", "hERG current change (%, negative = inhibition) at 1uM": 6.72},
      {"smiles": "O=C(c1ccccc1)N1CCN(CC(O)COc2ccc(Br)cc2)CC1", "note": "(stereo not drawn)", "hERG current change (%, negative = inhibition) at 1uM": -46.3},
      {"smiles": "N#Cc1c(Nc2ccccc2)s[nH]c1=O", "hERG current change (%, negative = inhibition) at 1uM": 6.43},
      {"smiles": "O=S(=O)(c1ccc(SCCOc2ccccc2)nc1)N1CCCC1", "hERG current change (%, negative = inhibition) at 1uM": 3.52},
      {"smiles": "CCc1c(C)nc2cc(-c3ccc(OC)c(OC)c3)nn2c1N1CCC(C)CC1", "hERG current change (%, negative = inhibition) at 1uM": 19.8},
      {"smiles": "NC(=O)c1c(NC(=O)COC(=O)c2ccc(S(=O)(=O)Nc3ccccc3)cc2)sc2c1CCCC2", "hERG current change (%, negative = inhibition) at 1uM": 12.2},
      {"smiles": "COc1ccccc1/C=C1\\SC(=O)N(CC(=O)NCCCn2ccnc2)C1=O", "hERG current change (%, negative = inhibition) at 1uM": 9.66},
      {"smiles": "CC(C)C[C@H](NC(=O)OC(C)(C)C)C(=O)N/N=C/C1=Cc2ccccc2OC1C", "note": "(stereo partly drawn)", "hERG current change (%, negative = inhibition) at 1uM": 4.35},
      {"smiles": "CCOc1ccccc1C1C(C(N)=O)=C(C)Nc2nc(CCCO)nn21", "note": "(stereo not drawn)", "hERG current change (%, negative = inhibition) at 1uM": 13.6},
      {"smiles": "O=C(CSc1nnc(CNc2ccc(F)cc2)o1)N1CCCc2ccccc21", "hERG current change (%, negative = inhibition) at 1uM": 11.3},
      {"smiles": "COc1ccc(CN2C(=O)C(C)N(C(=O)c3c(F)cccc3F)c3ccccc32)cc1", "note": "(stereo not drawn)", "hERG current change (%, negative = inhibition) at 1uM": 22.6},
      {"smiles": "O=C(CCC(=O)Nc1ccccc1)NNC(=O)c1ccco1", "hERG current change (%, negative = inhibition) at 1uM": 13.6},
      {"smiles": "N#CC1=C2SCN(c3ccccc3)CN2C(=O)CC1c1cccs1", "note": "(stereo not drawn)", "hERG current change (%, negative = inhibition) at 1uM": 10.1},
      {"smiles": "CCCCC(=O)Nc1nc2ccc3nc(C)sc3c2s1", "hERG current change (%, negative = inhibition) at 1uM": 14.3},
      {"smiles": "Cc1noc(C)c1CN1C(=O)c2ccccc2C1=O", "hERG current change (%, negative = inhibition) at 1uM": 14.5},
      {"smiles": "O=C(Nc1ccccc1Cc1ccccc1)C1CC(=O)N(c2ccc3c(c2)OCCO3)C1", "note": "(stereo not drawn)", "hERG current change (%, negative = inhibition) at 1uM": 12.9},
      {"smiles": "COc1cc(OC)c2c(-c3ccccc3)cc(=O)oc2c1", "hERG current change (%, negative = inhibition) at 1uM": 16.7},
      {"smiles": "CCN1CCC(=NNC(=O)c2ccc(C)c([N+](=O)[O-])c2)CC1", "hERG current change (%, negative = inhibition) at 1uM": 8.75},
      {"smiles": "CCC1(C)NC(=O)N(/N=C/c2ccc(C)s2)C1=O", "note": "(stereo not drawn)", "hERG current change (%, negative = inhibition) at 1uM": 15.8},
      {"smiles": "CCc1nc(N)nc2c1C(=O)CC(C)(C)C2", "hERG current change (%, negative = inhibition) at 1uM": 15.8},
      {"smiles": "CCN(CC)CCNC(=O)c1c(C)oc2cc(Br)c(OC)cc12", "hERG current change (%, negative = inhibition) at 1uM": 5.82},
      {"smiles": "CCC(C)[C@H](NC(=O)OC(C)(C)C)c1nnc(SCc2c(C)[nH]c(=O)[nH]c2=O)o1", "note": "(stereo partly drawn)", "hERG current change (%, negative = inhibition) at 1uM": 11.1},
      {"smiles": "CC(C)N1CCN(Cc2ccc(C#CC(C)(C)O)s2)CC1CCO", "note": "(stereo not drawn)", "hERG current change (%, negative = inhibition) at 1uM": 10.9},
      {"smiles": "Cc1cc2cc(NC(=O)c3ccco3)ccc2[nH]1", "hERG current change (%, negative = inhibition) at 1uM": 1.84},
      {"smiles": "Cc1cc(OC(=O)c2cc(F)c(F)cc2Cl)nc(C)n1", "hERG current change (%, negative = inhibition) at 1uM": 21.8},
      {"smiles": "Cc1ccc(N(CC(=O)NC2CCCC2)C(=O)CCC(=O)Nc2nccs2)c(C)c1", "hERG current change (%, negative = inhibition) at 1uM": 9.35},
      {"smiles": "Cc1ccccc1C(=O)OC1CCCN(C)C1.Cl", "note": "(stereo not drawn)", "hERG current change (%, negative = inhibition) at 1uM": 16.1},
      {"smiles": "O=C(CCC1CCCN(C(=O)c2ccco2)C1)NCc1ccccc1F", "note": "(stereo not drawn)", "hERG current change (%, negative = inhibition) at 1uM": 1.73},
      {"smiles": "CN1C(=O)S/C(=C/c2ccccc2OCc2ccc(C(=O)O)cc2)C1=O", "hERG current change (%, negative = inhibition) at 1uM": 8.3},
      {"smiles": "COc1ccc(N2CCN(C(=O)COC(=O)CNC(=O)c3ccccc3)CC2)cc1", "hERG current change (%, negative = inhibition) at 1uM": 12.9},
      {"smiles": "CCN(C(=O)Nc1cccc(Cl)c1)c1ccccc1", "hERG current change (%, negative = inhibition) at 1uM": 15},
      {"smiles": "O=C(Cc1ccc(S(=O)(=O)N2CCCCC2)cc1)NCc1ccc(Cl)cc1", "hERG current change (%, negative = inhibition) at 1uM": -16.8},
      {"smiles": "Cc1nc(CC(C)C)cc(C(=O)N2CCCC(Nc3ccc(C)c(C)c3)C2)n1", "note": "(stereo not drawn)", "hERG current change (%, negative = inhibition) at 1uM": 6.23},
      {"smiles": "COc1cc(CN(C)Cc2cc(=O)n3ccsc3n2)ccc1OC(F)F", "hERG current change (%, negative = inhibition) at 1uM": -6.1},
      {"smiles": "O=C(Cn1nc(C(F)F)cc1C(F)F)NNC(=S)Nc1ccc(F)cc1", "hERG current change (%, negative = inhibition) at 1uM": 8.48},
      {"smiles": "Cc1ccc(NC(=O)COC(=O)CCc2ccc(S(=O)(=O)N3CCOCC3)cc2)c(C)c1", "hERG current change (%, negative = inhibition) at 1uM": -8.88},
      {"smiles": "CCc1cc(=O)oc2c3c(cc(OCC(=O)N[C@H](C(=O)O)[C@H](C)CC)c12)OC(C)(C)CC3", "hERG current change (%, negative = inhibition) at 1uM": 12.2},
      {"smiles": "CCOC(=O)c1c(-c2ccccc2)csc1NC(=O)/C(C#N)=C/c1ccc(OC)c(OC)c1", "hERG current change (%, negative = inhibition) at 1uM": 9.35},
      {"smiles": "Cc1ccc(S(=O)(=O)N(C)Cc2ccc(-c3nnco3)cc2)cc1", "hERG current change (%, negative = inhibition) at 1uM": 15.1},
      {"smiles": "C(CCc1nn[nH]n1)CCc1nn[nH]n1", "hERG current change (%, negative = inhibition) at 1uM": 14},
      {"smiles": "O=S(=O)(c1ccccc1)N1CCCN(S(=O)(=O)c2ccccc2)CC1", "hERG current change (%, negative = inhibition) at 1uM": 17.5},
      {"smiles": "CCOc1cc(C(=S)N2CCN(C)CC2)ccc1OCC(=O)N1CCCC1", "hERG current change (%, negative = inhibition) at 1uM": 17.1},
      {"smiles": "COC(=O)c1sc(NC(=O)CSc2nc3cccnc3n2C2CCCCC2)nc1C", "hERG current change (%, negative = inhibition) at 1uM": 11.2},
      {"smiles": "Cn1c(N)c(C(=O)COC(=O)C2=COCCO2)c(=O)n(C)c1=O", "hERG current change (%, negative = inhibition) at 1uM": 5.69},
      {"smiles": "COc1ccc(C(CNCC(O)COc2c(C)ccc(C)c2C)N(C)C)cc1", "note": "(stereo not drawn)", "hERG current change (%, negative = inhibition) at 1uM": 6.74},
      {"smiles": "CCOC(=O)C(Cc1ccccc1)NC(=O)CCCC(=O)c1ccccc1", "note": "(stereo not drawn)", "hERG current change (%, negative = inhibition) at 1uM": 9.09},
      {"smiles": "COc1cccc(NC(=O)COC(=O)CNS(=O)(=O)c2c(F)cccc2F)c1", "hERG current change (%, negative = inhibition) at 1uM": 8.91},
      {"smiles": "O=C(NCCSc1ncc(-c2ccc(F)cc2)[nH]1)c1ccco1", "hERG current change (%, negative = inhibition) at 1uM": -13.8},
      {"smiles": "Cn1cccc1/C=N/NC(=O)c1cc(-c2cccs2)nc2ccccc12", "hERG current change (%, negative = inhibition) at 1uM": -3.14},
      {"smiles": "CCOc1ccc2nc(SC3CC(=O)N(c4ccccc4)C3=O)sc2c1", "note": "(stereo not drawn)", "hERG current change (%, negative = inhibition) at 1uM": 10.6},
      {"smiles": "O=C(O)c1ccn[nH]1", "hERG current change (%, negative = inhibition) at 1uM": 2.4},
      {"smiles": "CCCN1CCN(C(=O)CCS(=O)(=O)c2cc3c(cc2Cl)NC(=O)CO3)CC1", "hERG current change (%, negative = inhibition) at 1uM": -19.2},
      {"smiles": "Cc1ccsc1C(=O)N(C)CC(=O)N(CC(C)C)c1c(N)n(CC(C)C)c(=O)[nH]c1=O", "hERG current change (%, negative = inhibition) at 1uM": 5.73}
    ]}
  ]
}
